Where two headings read alike, the source gives them in different places. At least one peptide structure holds a part that was inferred or is arguable (an end, a ring closure or a residue). At least one structure is not confirmed: it was looked up by name or label, or the drawing left a doubt. Numbered stars: 1 amine (or outer) side, 2 acyl side, 3 side chain; on linkers, the order of the positions; unused ones are H or OH. Square brackets hold non-standard residues; d marks the D form. Side chains are listed from the residue outwards. Peptide text beside a SMILES is read from it. * marks the point of attachment. X1 = O=C(O)CCCCCCCCCCCCCCCCCCC(=O)NCC1CCC(C(=O)*)CC1; C20 diacid = O=C(O)CCCCCCCCCCCCCCCCCCC(=O)*; γGlu = O=C(O)[C@H](CCC(=O)[*:2])N[*:1]; εLys = N[C@@H](CCCCN[*:1])C(=O)[*:2]; Trx = NC[C@H]1CC[C@H](C(=O)O)CC1; AEEA = NCCOCCOCC(=O)O; Aib = CC(C)(N)C(=O)O
Columns and labels:
human GLP-1 receptor [1] = biological target: T1, human GLP-1 receptor (Homo sapiens, UniProt P43220); assay: In vitro potency, CRE luciferase reporter gene assay in BHK cells expressing the human GLP-1 receptor; assay type: cell-based; conditions: whole cell reporter gene assay, 3 h incubation, no HSA, averages of at least two replicates
T1 construct: expressed in transfected cells; host or cells: membranes prepared from BHK cells (parent line BHKTS13), clone FCW467-12A
T1 sequence (P43220 24-463): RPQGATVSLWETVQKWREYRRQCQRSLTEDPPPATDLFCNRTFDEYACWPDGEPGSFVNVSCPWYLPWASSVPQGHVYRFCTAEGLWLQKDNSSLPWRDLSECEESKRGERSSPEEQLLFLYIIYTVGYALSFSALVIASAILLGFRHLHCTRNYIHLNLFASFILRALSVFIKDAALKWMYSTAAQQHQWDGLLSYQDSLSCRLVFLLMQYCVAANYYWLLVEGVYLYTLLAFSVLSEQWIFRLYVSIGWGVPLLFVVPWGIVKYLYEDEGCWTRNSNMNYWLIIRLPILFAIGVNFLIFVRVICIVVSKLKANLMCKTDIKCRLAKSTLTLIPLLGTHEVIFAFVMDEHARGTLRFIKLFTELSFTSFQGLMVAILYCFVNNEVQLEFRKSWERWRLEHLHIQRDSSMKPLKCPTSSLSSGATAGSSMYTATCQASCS
Description: The purpose of this example is to test the activity, or potency, of the GLP-1 derivatives in vitro. The in vitro potency is the measure of human GLP-1 receptor activation in a whole cell assay.
Semaglutide was included for comparison.
In vitro potency was determined by measuring the response of the human GLP-1 receptor in a reporter gene assay. The assay was performed in a stably transfected BHK cell line that expresses the human GLP-1 receptor and contains the DNA for the cAMP response element (CRE) coupled to a promoter and the gene for firefly luciferase (CRE luciferase). When the human GLP-1 receptor is activated it results in the production of cAMP, which in turn results in the luciferase protein being expressed. When assay incubation is completed the luciferase substrate (luciferin) is added and the enzyme converts luciferin to oxyluciferin to produce bioluminescence. The luminescence is measured as the readout for the assay.
The cells used in this assay (clone FCW467-12A/KZ10-1) were BHK cells with BHKTS13 as a parent cell line. The cells were derived from a clone (FCW467-12A) that expresses the human GLP-1 receptor and were established by further transfection with CRE luciferase to obtain the current clone.
The cells were cultured at 5% CO2 in Cell Culture Medium. They were aliquoted and stored in liquid nitrogen. Before each assay an aliquot is taken up and washed twice in PBS before being suspended at the desired concentration in the assay specific buffer. For 96-well plates the suspension was made to give a final concentration of 5×10^3 cells/well.
The following chemicals were used in the assay: Pluronic F-68 (10%) (Gibco 2404), human serum albumin (HSA) (Sigma A9511), ovalbumin (Sigma A5503), DMEM w/o phenol red (Gibco 11880-028), 1 M Hepes (Gibco 15630), Glutamax 100× (Gibco 35050) and steadylite plus (PerkinElmer 6016757).
Cell Culture Medium consisted of DMEM medium with 10% FBS (Fetal Bovine Serum; Invitrogen 16140-071), 1 mg/ml G418 (Invitrogen 15140-122), 240 nM MTX (methotrexate; Sigma M9929) and 1% pen/strep (penicillin/streptomycin; Invitrogen 15140-122).
Assay Medium consisted of DMEM w/o phenol red, 10 mM Hepes and 1× Glutamax. The Assay Buffer consisted of 2% ovalbumin and 0.2% Pluronic F-68 in Assay Medium.
1) Cell stocks were thawed in a 37° C. water bath.
2) Cells were washed three times in PBS.
3) The cells were counted and adjusted to 5×10^3 cells/50 μl (1×10^5 cells/ml) in Assay Medium. A 50 μl aliquot of cells was transferred to each well in the assay plate.
4) Stocks of the test compounds and reference compounds were diluted to a concentration of 0.2 μM in Assay Buffer. Compounds were diluted 10-fold to give the following concentrations: 2×10^−7 M, […]; 2×10^−9 M, 2×10^−10 M, 2×10^−11 M, 2×10^−12 M, 2×10^−13 M, and 2×10^−14 M. 5) A 50 μl aliquot of compound or blank was transferred from the dilution plate to the assay plate. Compounds were tested at the following final concentrations: 1×10^−7 M, 1×10^−8 M; 1×10^−9 M, 1×10^−10 M, 1×10^−11 M, 1×10^−12 M, 1×10^−13 M, and 1×10^−14 M. 6) The assay plate was incubated for 3 h in a 5% CO2 incubator at 37° C. 7) The assay plate was removed from the incubator and allowed to stand at room temperature for 15 min. 8) A 100 μl aliquot of steadylite plus reagent was added to each well of the assay plate (reagent was light sensitive). 9) Each assay plate was covered with aluminum foil to protect it from light and shaken for 30 min at room temperature. 10) Each assay plate was read in a Packard TopCount NXT instrument. Calculations and Results
The data from the TopCount instrument were transferred to GraphPad Prism software. The software performs a non-linear regression (log(agonist) vs response).
A minimum of two replicates was measured for each sample. The reported values are averages of the replicates.

human GLP-1 receptor [2] = biological target: T1, human GLP-1 receptor; assay: GLP-1 receptor binding, competitive binding assay (125I-GLP-1, SPA) on isolated membranes
db/db mice = assay: Pharmacodynamic single-dose study in db/db mice (blood glucose and body weight); assay type: in vivo; conditions: single s.c. dose 30 nmol/kg (Examples 1-8) or 10 nmol/kg (Example 10); for % change in body weight 48 h: 48 h vs basal; for % change in blood glucose 48 h: 48 h vs basal level; for % change in body weight 96 h: 96 h vs basal; for % change in blood glucose 96 h: 96 h vs basal level
[3] = read-out: High HSA IC50, high serum albumin (2.0% HSA final assay concentration)
[4] = read-out: Low HSA IC50, low serum albumin (max. 0.001% final assay concentration)

SMILES | EC50 (human GLP-1 receptor [1]) | IC50 (human GLP-1 receptor [2]; [3]) | IC50 (human GLP-1 receptor [2]; [4]) | % change in body weight 48 h (db/db mice) | % change in blood glucose 48 h (db/db mice) | % change in body weight 96 h (db/db mice) | % change in blood glucose 96 h (db/db mice)
CC[C@H](C)[C@H](NC(=O)[C@H](Cc1ccccc1)NC(=O)[C@H](CCCCNC(=O)COCCOCCNC(=O)COCCOCCNC(=O)CC[C@H](NC(=O)C1CCC(CNC(=O)CCCCCCCCCCCCCCCCCCC(=O)O)CC1)C(=O)O)NC(=O)[C@H](CCCNC(=N)N)NC(=O)[C@H](C)NC(=O)[C@H](C)NC(=O)[C@H](CCC(N)=O)NC(=O)[C@H](CCC(=O)O)NC(=O)[C@H](CCC(=O)O)NC(=O)[C@H](CC(C)C)NC(=O)[C@H](Cc1ccc(O)cc1)NC(=O)[C@H](CO)NC(=O)[C@H](CO)NC(=O)[C@@H](NC(=O)[C@H](CC(=O)O)NC(=O)[C@H](CO)NC(=O)[C@@H](NC(=O)[C@H](Cc1ccccc1)NC(=O)[C@@H](NC(=O)CNC(=O)[C@H](CCC(=O)O)NC(=O)C(C)(C)NC(=O)[C@@H](N)Cc1c[nH]cn1)[C@@H](C)O)[C@@H](C)O)C(C)C)C(=O)N[C@@H](C)C(=O)N[C@@H](Cc1c[nH]c2ccccc12)C(=O)N[C@@H](CC(C)C)C(=O)N[C@H](C(=O)N[C@@H](CCCNC(=N)N)C(=O)NCC(=O)N[C@@H](CCCNC(=N)N)C(=O)NCC(=O)NCC(=O)NCC(=O)NCC(=O)N[C@@H](CO)C(=O)N[C@@H](CCCCNC(=O)COCCOCCNC(=O)COCCOCCNC(=O)CC[C@H](NC(=O)C1CCC(CNC(=O)CCCCCCCCCCCCCCCCCCC(=O)O)CC1)C(=O)O)C(=O)O)C(C)C (stereo partly shown) [Example 1] (H-H[Aib]EGTFTSDVSSYLEEQAARK([AEEA-AEEA-γGlu-X1])FIAWLVRGRGGGGSK([AEEA-AEEA-γGlu-X1])-OH; N-terminus and C-terminus assumed) | 0.055 nM | 275 nM | 0.75 nM | −6% | −61% | −3% | −21%
CC[C@H](C)[C@H](NC(=O)[C@H](Cc1ccccc1)NC(=O)[C@H](CCC(=O)O)NC(=O)[C@H](CCCNC(=N)N)NC(=O)[C@H](C)NC(=O)[C@H](C)NC(=O)[C@H](CCCCNC(=O)COCCOCCNC(=O)COCCOCCNC(=O)CC[C@H](NC(=O)C1CCC(CNC(=O)CCCCCCCCCCCCCCCCCCC(=O)O)CC1)C(=O)O)NC(=O)[C@H](CCC(=O)O)NC(=O)[C@H](CCC(=O)O)NC(=O)[C@H](CC(C)C)NC(=O)[C@H](Cc1ccc(O)cc1)NC(=O)[C@H](CO)NC(=O)[C@H](CO)NC(=O)[C@@H](NC(=O)[C@H](CC(=O)O)NC(=O)[C@H](CO)NC(=O)[C@@H](NC(=O)[C@H](Cc1ccccc1)NC(=O)[C@@H](NC(=O)CNC(=O)[C@H](CCC(=O)O)NC(=O)C(C)(C)NC(=O)[C@@H](N)Cc1c[nH]cn1)[C@@H](C)O)[C@@H](C)O)C(C)C)C(=O)N[C@@H](C)C(=O)N[C@@H](Cc1c[nH]c2ccccc12)C(=O)N[C@@H](CC(C)C)C(=O)N[C@H](C(=O)N[C@@H](CCCNC(=N)N)C(=O)NCC(=O)N[C@@H](CCCNC(=N)N)C(=O)NCC(=O)NCC(=O)NCC(=O)NCC(=O)N[C@@H](CO)C(=O)N[C@@H](CCCCNC(=O)COCCOCCNC(=O)COCCOCCNC(=O)CC[C@H](NC(=O)C1CCC(CNC(=O)CCCCCCCCCCCCCCCCCCC(=O)O)CC1)C(=O)O)C(=O)O)C(C)C (stereo partly shown) [Example 4] (H-H[Aib]EGTFTSDVSSYLEEK([AEEA-AEEA-γGlu-X1])AAREFIAWLVRGRGGGGSK([AEEA-AEEA-γGlu-X1])-OH; N-terminus and C-terminus assumed) | 0.074 nM | 113 nM | 0.85 nM | −4% | −30% | −3% | −18%
CC[C@H](C)[C@H](NC(=O)[C@H](Cc1ccccc1)NC(=O)[C@H](CCC(=O)O)NC(=O)[C@H](CCCNC(=N)N)NC(=O)[C@H](C)NC(=O)[C@H](C)NC(=O)[C@H](CCC(N)=O)NC(=O)[C@H](CCC(=O)O)NC(=O)[C@H](CCC(=O)O)NC(=O)[C@H](CC(C)C)NC(=O)[C@H](Cc1ccc(O)cc1)NC(=O)[C@H](CO)NC(=O)[C@H](CO)NC(=O)[C@@H](NC(=O)[C@H](CC(=O)O)NC(=O)[C@H](CO)NC(=O)[C@@H](NC(=O)[C@H](Cc1ccccc1)NC(=O)[C@@H](NC(=O)CNC(=O)[C@H](CCC(=O)O)NC(=O)C(C)(C)NC(=O)[C@@H](N)Cc1c[nH]cn1)[C@@H](C)O)[C@@H](C)O)C(C)C)C(=O)N[C@@H](C)C(=O)N[C@@H](Cc1c[nH]c2ccccc12)C(=O)N[C@@H](CC(C)C)C(=O)N[C@H](C(=O)N[C@@H](CCCNC(=N)N)C(=O)NCC(=O)N[C@@H](CCCCNC(=O)COCCOCCNC(=O)COCCOCCNC(=O)CC[C@H](NC(=O)C1CCC(CNC(=O)CCCCCCCCCCCCCCCCCCC(=O)O)CC1)C(=O)O)C(=O)NCC(=O)NCC(=O)NCC(=O)NCC(=O)N[C@@H](CO)C(=O)N[C@@H](CCCCNC(=O)COCCOCCNC(=O)COCCOCCNC(=O)CC[C@H](NC(=O)C1CCC(CNC(=O)CCCCCCCCCCCCCCCCCCC(=O)O)CC1)C(=O)O)C(=O)O)C(C)C (stereo partly shown) [Example 5] (H-H[Aib]EGTFTSDVSSYLEEQAAREFIAWLVRGK([AEEA-AEEA-γGlu-X1])GGGGSK([AEEA-AEEA-γGlu-X1])-OH; N-terminus and C-terminus assumed) | 0.061 nM | 101 nM | 1.1 nM | −4% | −28% | −3% | −33%
CC[C@H](C)[C@H](NC(=O)[C@H](Cc1ccccc1)NC(=O)[C@H](CCC(=O)O)NC(=O)[C@H](CCCNC(=N)N)NC(=O)[C@H](C)NC(=O)[C@H](C)NC(=O)[C@H](CCC(N)=O)NC(=O)[C@H](CCC(=O)O)NC(=O)[C@H](CCC(=O)O)NC(=O)[C@H](CC(C)C)NC(=O)[C@H](Cc1ccc(O)cc1)NC(=O)[C@H](CO)NC(=O)[C@H](CO)NC(=O)[C@@H](NC(=O)[C@H](CC(=O)O)NC(=O)[C@H](CO)NC(=O)[C@@H](NC(=O)[C@H](Cc1ccccc1)NC(=O)[C@@H](NC(=O)CNC(=O)[C@H](CCC(=O)O)NC(=O)C(C)(C)NC(=O)[C@@H](N)Cc1c[nH]cn1)[C@@H](C)O)[C@@H](C)O)C(C)C)C(=O)N[C@@H](C)C(=O)N[C@@H](Cc1c[nH]c2ccccc12)C(=O)N[C@@H](CC(C)C)C(=O)N[C@H](C(=O)N[C@@H](CCCNC(=N)N)C(=O)NCC(=O)N[C@@H](CCCNC(=N)N)C(=O)NCC(=O)N[C@@H](CCCCNC(=O)[C@@H](N)CCCCNC(=O)[C@@H](N)CCCCNC(=O)CC[C@H](NC(=O)[C@H]1CC[C@H](CNC(=O)CCCCCCCCCCCCCCCCCCC(=O)O)CC1)C(=O)O)C(=O)NCC(=O)NCC(=O)N[C@@H](CO)C(=O)N[C@@H](CCCCNC(=O)[C@@H](N)CCCCNC(=O)[C@@H](N)CCCCNC(=O)CC[C@H](NC(=O)[C@H]1CC[C@H](CNC(=O)CCCCCCCCCCCCCCCCCCC(=O)O)CC1)C(=O)O)C(=O)O)C(C)C [Example 7] (H-H[Aib]EGTFTSDVSSYLEEQAAREFIAWLVRGRGK([εLys-εLys-γGlu-Trx-C20 diacid])GGSK([εLys-εLys-γGlu-Trx-C20 diacid])-OH) | 0.381 nM | 197 nM | 2.2 nM | −4% | −49% | −1% | −17%

From US10010614B2, “Derivatives of GLP-1 like peptides, and uses thereof” (Novo Nordisk A/S, priority 2013, dated 2018)
